Hit rate of the full screen: of about 220,000 compounds, about 16,000 (7.3%) were called active. The inconclusive results got no clear call from the source; some entries with a clear call stand among them for comparison. Calls come from the whole dose curve; as a rule, active = well fitted inhibition curve with a large enough effect (not every such curve was filed as active); inconclusive = small, poorly fitted or top-dose-only effect, or another doubt; inactive = no such curve, though single readings can be large or run the other way. Potencies beside an inconclusive call are fits to weak or partial responses and may not hold up.
Target: Aldehyde dehydrogenase 1A1 (Homo sapiens) (UniProt P00352)
Experiment: qHTS Assay for Inhibitors of Aldehyde Dehydrogenase 1 (ALDH1A1);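 for activity, negative = inhibition: plate controls were no enzyme wells and a reference inhibitor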
Conditions: Purified ALDH1A1, NADH fluorescence, propionaldehyde substrate; series mostly up to 75.3 µM; activity, negative = inhibition: at the top concentration
Potency is the fitted concentration of half-maximal effect; tags give direction and shape of the fitted curve.

UniProt P00352, sequence (P00352 whole entry, looked up): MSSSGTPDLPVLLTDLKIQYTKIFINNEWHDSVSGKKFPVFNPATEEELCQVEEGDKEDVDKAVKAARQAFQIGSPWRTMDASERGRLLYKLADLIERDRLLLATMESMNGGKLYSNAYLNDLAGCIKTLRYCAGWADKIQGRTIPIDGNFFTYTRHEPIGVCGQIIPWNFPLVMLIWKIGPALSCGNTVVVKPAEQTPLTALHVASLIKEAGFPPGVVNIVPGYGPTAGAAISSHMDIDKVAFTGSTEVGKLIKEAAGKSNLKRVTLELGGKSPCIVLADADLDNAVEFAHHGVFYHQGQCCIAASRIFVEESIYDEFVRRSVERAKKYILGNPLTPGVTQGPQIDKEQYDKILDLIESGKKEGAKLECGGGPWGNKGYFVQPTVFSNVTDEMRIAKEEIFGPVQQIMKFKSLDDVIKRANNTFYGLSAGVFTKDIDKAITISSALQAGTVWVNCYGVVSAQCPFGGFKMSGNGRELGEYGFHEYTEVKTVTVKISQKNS

Potency, inconclusive:
COc1ccc(Oc2coc3c(CN4CCOCC4)c(O)ccc3c2=O)cc1 31.6 µM [inhibitor, single point]
CN(C)CCNc1oc(/C=C/c2ccccc2)nc1C#N 25.1 µM [inhibitor, partial curve]
CC(C)CNC(=O)COC(=O)c1cc(S(=O)(=O)N2CCCCC2)ccc1N1CCOCC1 25.1 µM [inhibitor, single point]
Cn1c(SCC(=O)Nc2ccc(NC(=O)c3cccs3)cc2)nnc1-c1ccncc1 39.8 µM [inhibitor, single point]
CCN(CC)CCNC(C(=O)Nc1cc(C(F)(F)F)ccc1Cl)c1ccccc1 (stereo unspecified) 39.8 µM [inhibitor, single point]
CCOc1ccc(CN2CCNC(=O)C2CC(=O)NCCCn2ccnc2)cc1 (stereo unspecified) 6.31 µM [inhibitor, single point]
COc1ccc2c(c1)CCc1c(C(=O)N3CCCCCC3)noc1-2 39.8 µM [inhibitor, single point]
CN(C)c1ccc(/C=N/NC(=O)C(O)c2ccc(Br)cc2)cc1 (stereo unspecified) 23.8 µM [inhibitor, partial curve]
Oc1ccc(C2CNCCc3c2cc(O)c(O)c3Cl)cc1 (stereo unspecified) 4.47 µM [inhibitor, full curve]
COc1ccccc1-c1coc2cc(O)ccc2c1=O 25.1 µM [inhibitor, partial curve]
CCOC(=O)N1CCN(C(=O)CSCc2ccc(C)cc2)CC1 31.6 µM [inhibitor, single point]
CCOC(=O)OCC1OC(C#Cc2ccccc2)C=CC1Oc1cccc(N(C)C)c1 (stereo unspecified) 4.47 µM [inhibitor, partial curve]
C[C@H](NS(=O)(=O)c1ccccc1F)C(=O)OCC(=O)N1CCc2ccccc21 22.4 µM [inhibitor, single point]
CCCCNCc1cc(Br)c(OCC(=O)NCc2ccccc2)c(OC)c1 17.8 µM [inhibitor, partial curve]
Cc1c(/C(O)=C2\C(=O)C(=O)N(CCN(C)C)C2c2cccnc2)cnn1-c1ccccc1 (stereo unspecified) 39.8 µM [inhibitor, single point]
COc1ccccc1CNc1ncnc2ccc(-c3c(C)noc3C)cc12 31.6 µM [inhibitor, single point]
COc1ccc(-c2[nH]c(-c3ccccc3)nc2SCC(=O)NC2CCCC2)cc1 31.6 µM [inhibitor, partial curve]
CCOC(=O)c1cc(-c2ccc(Cl)cc2)nc2c1c(=O)[nH]c(=O)n2CCOC 28.2 µM [inhibitor, partial curve]
COC(=O)c1ccccc1NC(=O)Oc1ccc(F)cc1 39.8 µM [inhibitor, single point]
Cc1cc(C)cc(OC(C)c2ccnc3nc(/N=C/N(C)C)nn23)c1 (stereo unspecified) 31.6 µM [inhibitor, partial curve]
CCOC(=S)SCc1cn2cccc(C)c2n1 39.8 µM [inhibitor, single point]
O=c1oc2c3c4c(cc2c2c1CCC2)OCCN4CCC3 25.1 µM [inhibitor, partial curve]
CC(C)N(C(=O)CSc1nc2c([nH]1)c(=O)n(C)c(=O)n2C)c1ccccc1 39.8 µM [inhibitor, single point]
COc1ccc(Oc2nc(C)cc(C)c2S(=O)(=O)c2ccc(C)cc2)cc1 3.55 µM [inhibitor, full curve]
O=C(Nc1nccs1)c1cn(-c2ccccc2)nc1-c1ccccc1 39.8 µM [inhibitor, single point]
CCOC(=O)c1cc2c(=O)n3ccccc3nc2n(Cc2ccco2)c1=NC(=O)c1ccccc1OCC 39.8 µM [inhibitor, single point]
Cc1cccc(/C=N/NC(=O)c2cc3c(s2)-c2ccccc2CC3)c1 28.2 µM [inhibitor, partial curve]
Cc1ccc2nc(NC(=O)c3cc(-c4ccco4)nc4ccccc34)sc2c1 25.1 µM [inhibitor, partial curve]
CC(=O)c1sc(NC(=O)CCOc2ccccc2)nc1C 39.8 µM [inhibitor, single point]
O=C(O)c1cc(N/N=C/c2ccc3c(c2)OCO3)ccc1Cl 39.8 µM [inhibitor, single point]
Cc1cccc(CN2CCN(CCCc3ccccc3)CC2)c1 5.01 µM [inhibitor, full curve]
COC(=O)c1cc(C(=O)OC)cc(-n2c(C)cc(C=O)c2C)c1 31.6 µM [inhibitor, single point]
CCc1ccc(-c2cc(C(=O)NN3CCN(C)CC3)c3ccccc3n2)cc1 39.8 µM [inhibitor, single point]
CCN(CC)S(=O)(=O)c1cc([N+](=O)[O-])ccc1NNC(=O)Nc1ccccc1 39.8 µM [inhibitor, single point]
Cc1cc(N/N=C/c2c[nH]c3ccccc23)c2ccccc2n1 22.4 µM [inhibitor, partial curve]
CC1=[N+](C)c2c(ccc3cccnc23)C1(C)C 39.8 µM [inhibitor, single point]
c1ccc(CSc2nnc(-c3ccco3)n2Cc2ccco2)cc1 39.8 µM [inhibitor, single point]
Cc1ccc(C(=O)NC(=S)Nc2ccc(-c3ccc(CO)o3)cc2)cc1 11.2 µM [inhibitor, partial curve]
CC(C)c1nnc(NC(=O)Cn2nc(-c3ccc4c(c3)OCCO4)ccc2=O)s1 39.8 µM [inhibitor, single point]
CCCCC(=O)N(C)C 39.8 µM [inhibitor, single point]
Cc1cccn2c(=O)c(C=O)c(NCc3ccccc3)nc12 28.2 µM [inhibitor, partial curve]
COc1ccc(NC(=O)CNc2cccc(C#N)c2)cc1Cl 28.2 µM [inhibitor, single point]
COCCSc1nc2c(c(=O)[nH]c(=O)n2C)n1CCC(C)C 14.1 µM [inhibitor, partial curve]
O=C(Nc1cccnc1)c1cccc(S(=O)(=O)N2CCCC2)c1 25.1 µM [inhibitor, partial curve]
Cc1ccc(NC(=O)C(OC(=O)c2ccc(NC(N)=O)cc2)c2ccccc2)cc1Cl (stereo unspecified) 39.8 µM [inhibitor, single point]
CCOC(=O)CSc1nnc(CCCCCN2C(=O)c3cccc4cccc(c34)C2=O)o1 39.8 µM [inhibitor, single point]

Potency, active:
CC1CCCCN1CC(=O)Nc1ccc(N2CCCCCC2)cc1 (stereo unspecified) 20 µM
c1ccc(CN=C2NN=C(c3ccccc3)CS2)cc1 22.4 µM
COc1cccc(N2CCN(CC(=O)C34CC5CC(CC(C5)C3)C4)CC2)c1 15.8 µM
Cc1ccc(S(=O)(=O)NCCC(=O)Nc2nnc(C3CC3)s2)cc1C 17.8 µM
Oc1c(C(Nc2cccc(C(F)(F)F)c2)c2cccnc2)ccc2cccnc12 (stereo unspecified) 20 µM
CCN(CC)S(=O)(=O)c1ccc(N2CCOCC2)c(NS(=O)(=O)c2ccc(C)c(C)c2)c1 0.891 µM
COc1ccc(S(=O)(=O)Nc2cc(C(C)C)c(O)cc2C)cc1 0.316 µM
O=C1c2ccccc2C(=O)N1CC#CCN1CCN(C(c2ccccc2)c2ccccc2)CC1 15.8 µM
C(=C\c1ccccc1)/CSc1nnc(-c2cnccn2)n1Cc1ccco1 22.4 µM
O=C(/C=C/c1cccc([N+](=O)[O-])c1)NCC1CCCO1 (stereo unspecified) 14.1 µM
COc1ccc(C(=O)NC(=S)Nc2ccc(N3CCCC3)cc2)cc1 10 µM
O=C1C(Cl)=C(NCCCN2CCOCC2)C(=O)N1CCc1ccccc1 7.94 µM
Clc1ccc2[nH]cc(-c3nnnn3-c3ccc4ccccc4c3)c2c1 9.46 µM

activity, negative = inhibition, inactive:
CC(=O)Nc1cccc(NC(=O)CSc2ncc(-c3ccccc3)[nH]2)c1 -5.52%
O=C(CN1C(=O)C2C3C=CC(C3)C2C1=O)Nc1nc2ccccc2[nH]1 (stereo unspecified) 1.39%
CCC(=O)N1CCN(CCN=Cc2c(O)n(C3CCCCC3)c(=O)n(C3CCCCC3)c2=O)CC1 -11.5%
Nc1nnc(SCCCC(=O)c2ccccc2)s1 19.4%
Oc1ccc(C=Nc2ccc(N3CCOCC3)cc2)c(O)c1 -12.4%
CC1(C)CN=C(N(Cc2ccccc2)C(=O)Nc2ccccc2)S1 5.88%
COc1ccc(CCNC(=O)CN2CCN(c3cccc(Cl)c3)CC2)cc1OC -8.95%
COc1ccc(CC(=O)NNC(=O)c2cccs2)cc1 1.64%
CCNc1ccc(C(=O)OCC(=O)c2cc(C)n(Cc3ccc4c(c3)OCO4)c2C)cc1[N+](=O)[O-] 4.7%
COc1ccc(S(=O)(=O)N(CC(=O)NC2CC2)c2ccc(C)cc2)cc1 -15.3%
COc1ccc(C2=NOC(C(=O)NCc3cccs3)C2)cc1OC (stereo unspecified) -2.61%
C=CCO/N=C(/CCC)C1=C(N)CC(C)(C)CC1=O 8.89%

From PubChem BioAssay AID1030 (National Center for Advancing Translational Sciences (NCATS), 2008)
